Experimental data: PubChem BioAssay AID1460 (National Center for Advancing Translational Sciences (NCATS), 2008)
Hit rate of the full screen: of about 270,000 compounds, about 5,800 (2.1%) were called active. This list was built around the results that the source calls inconclusive (neither active nor inactive); the mix of calls is not that of the screen. The call rests on the fitted dose curve; in most records, active means well fitted inhibition curve with a large enough effect; inconclusive means small, poorly fitted or top-dose-only effect; inactive means flat fitted curve, though single readings scatter. Where the call is inconclusive, the potency comes from a doubtful curve fit.

target: Microtubule-associated protein tau (Homo sapiens) (UniProt P10636); test: qHTS for Inhibitors of Tau Fibril Formation, Thioflavin T Binding; conditions: recombinant tau K18 P301L (four-repeat tau fragment), heparin-induced fibrillization, ThT fluorescence; series mostly up to 57.4 µM; activity, negative = inhibition: at the top concentration; further: nearly all actives have a fitted effect of over 55% in size
Sequence of UniProt P10636 (P10636 whole entry, looked up, the tested form may be a part): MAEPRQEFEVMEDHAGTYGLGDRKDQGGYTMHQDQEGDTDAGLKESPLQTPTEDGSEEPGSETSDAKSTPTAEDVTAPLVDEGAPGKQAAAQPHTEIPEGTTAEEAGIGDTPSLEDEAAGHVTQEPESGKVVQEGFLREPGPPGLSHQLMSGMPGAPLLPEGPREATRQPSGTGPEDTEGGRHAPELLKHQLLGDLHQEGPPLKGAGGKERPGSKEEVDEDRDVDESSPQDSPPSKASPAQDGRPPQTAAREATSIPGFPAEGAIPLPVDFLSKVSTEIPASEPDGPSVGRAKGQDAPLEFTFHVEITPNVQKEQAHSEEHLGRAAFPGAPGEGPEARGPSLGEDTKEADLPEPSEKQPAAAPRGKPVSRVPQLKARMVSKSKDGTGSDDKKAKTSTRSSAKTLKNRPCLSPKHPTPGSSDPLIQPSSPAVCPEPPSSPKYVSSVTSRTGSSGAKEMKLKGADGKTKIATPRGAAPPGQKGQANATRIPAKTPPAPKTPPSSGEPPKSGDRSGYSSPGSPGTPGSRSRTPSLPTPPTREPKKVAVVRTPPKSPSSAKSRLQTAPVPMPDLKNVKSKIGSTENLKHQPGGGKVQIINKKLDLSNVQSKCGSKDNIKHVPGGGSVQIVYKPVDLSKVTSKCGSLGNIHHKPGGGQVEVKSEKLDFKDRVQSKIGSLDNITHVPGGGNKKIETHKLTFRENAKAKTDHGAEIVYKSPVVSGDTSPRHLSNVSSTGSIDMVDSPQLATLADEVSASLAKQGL
In short: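 Tau K18 P301L fragment (15 uM unlabeled plus 0.24 uM Alexa 594-labeled) in 100 mM sodium acetate pH 7 with compound, fibrillization induced by 20 uM heparin for 6 hr at 37 C. Thioflavin T (30 uM) added, fluorescence read after 1 hr (ex 450, em 510 nm).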
On the % scale 0 is the no-effect control and ±100 the full control effect; potency means the concentration at half of the fitted maximal effect; tags describe the fitted curve by direction and shape.

| Structure (SMILES) | Potency | activity, negative = inhibition |
| --- | --- | --- |
| N#C/C(=C\c1cccc(Oc2ccc(C(F)(F)F)cc2[N+](=O)[O-])c1)c1nc2ccccc2[nH]1 | inconclusive: 12.6 µM [inhibitor, partial curve] |  |
| CCOC(=O)c1ccccc1NC(=O)COc1ccccc1-c1nnc(-c2ccccc2)o1 |  | inactive: -14.4% |
| C=CCNC(=O)c1c(N)n(-c2cccc(S(N)(=O)=O)c2)c2nc3ccccc3nc12 | inconclusive: 17.8 µM [inhibitor, single point] |  |
| CCCCCCSc1nnc2c(n1)OC(C)Nc1ccc(Br)cc1-2 (configuration not stated) | inconclusive: 22.4 µM [inhibitor, partial curve] |  |
| COc1ccc(NC(=O)c2ccc(C(=O)c3ccccc3)o2)cc1 | inconclusive: 2.24 µM [inhibitor, full curve, poor fit] |  |
| CCOc1ccc2nc(N3CCCC(C(=O)Nc4cc(Cl)c(OC)cc4OC)C3)sc2c1 (configuration not stated) | inconclusive: 11.2 µM [inhibitor, partial curve] |  |
| O=C(CSC(=S)N1CCCC1)c1cc(Br)cc(Br)c1O | inconclusive: 15.8 µM [inhibitor, partial curve] |  |
| Cc1c(C(=O)Nc2cccc(-c3nc4ccccc4s3)c2)oc2ccccc12 | inconclusive: 1.58 µM [inhibitor, full curve, poor fit] |  |
| CCC1CCCCN1C(=O)COc1c(Br)cc(Br)c2cccnc12 (configuration not stated) | inconclusive: 35.5 µM [inhibitor, single point] |  |
| CC(C)NC(=S)Nc1ccc2cn[nH]c2c1 | inconclusive: 15.8 µM [inhibitor, partial curve] |  |
| CSc1n[nH]c(=O)n1-c1cccc(Cl)c1 |  | inactive: -5.38% |
| O=C(CC1C(=O)NCCN1Cc1ccoc1)NCCCn1ncc2ccccc21 (configuration not stated) | inconclusive: 11.2 µM [inhibitor, partial curve] |  |
| COc1ccccc1N/C=C/C(=C(C#N)C#N)N(C)C | inconclusive: 11.2 µM [inhibitor, partial curve, poor fit] |  |
| CCCCCCC(=O)Nc1nc(C)c(-c2csc(Nc3cccc(OC)c3)n2)s1 | active: 7.94 µM |  |
| COc1cc(NC(=O)C(CC(C)C)NS(=O)(=O)c2ccc3c(c2)CCN3C(C)=O)cc(OC)c1 (configuration not stated) |  | inactive: -3.56% |
| O=C(N/N=C1\CCc2ccccc21)c1ccccc1O | inconclusive: 10 µM [inhibitor, partial curve] |  |
| Cc1nc(SCC(=O)c2cccc([N+](=O)[O-])c2)n[nH]1 | active: 39.8 µM |  |
| COc1ccc(-c2nnc3sc(-c4ccccn4)nn23)cc1 | inconclusive: 5.62 µM [inhibitor, partial curve, poor fit] |  |
| CCOC(=O)N1CCC(NC(=O)C2CCN(C(=O)c3cc4oc(C)cc4n3Cc3c(F)cccc3Cl)CC2)CC1 | inconclusive: 28.2 µM [inhibitor, single point] |  |
| COc1ccc(/C=N/Nc2nc(-c3cccnc3)nc3ccccc23)cc1OC | inconclusive: 10 µM [inhibitor, partial curve] |  |
| COC(=O)CCCNC(=O)c1ccc2[nH]c(C)c(C)c2c1 | inconclusive: 35.5 µM [inhibitor, single point] |  |

| Structure (SMILES) | Potency | activity, negative = inhibition |
| --- | --- | --- |
| Cc1nc(CCNC(=O)CC2C(=O)NCCN2Cc2ccoc2)nc2c1CCCC2 (configuration not stated) | inconclusive: 31.6 µM [inhibitor, single point] |  |
| Cc1ccc2c(c1)NCCO2 | inconclusive: 14.1 µM [inhibitor, partial curve] |  |
| CC(=O)Nc1sc(N/N=C\c2ccccc2F)nc1-c1cccs1 | active: 8.91 µM |  |
| Cc1onc(-c2ccccc2)c1-c1csc(COc2ccccc2)n1 | inconclusive: 17.8 µM [inhibitor, single point] |  |
| CNc1nc(OCCNC(=O)Nc2ccccc2)nc(N2CCOCC2)n1 | inconclusive: 3.98 µM [inhibitor, single point] |  |
| COc1ccc(-c2noc(CCC(=O)Nc3ccc(C(F)(F)F)cc3)n2)cc1 | inconclusive: 7.08 µM [inhibitor, partial curve] |  |
| Cc1[nH]c2c(ccc3cccnc32)c1C | inconclusive: 25.1 µM [inhibitor, partial curve] |  |
| O=C(C[n+]1ccc(C(=O)NCc2ccccc2)cc1)c1ccc(OC(F)F)cc1 | inconclusive: 12.6 µM [inhibitor, partial curve] |  |
| Cc1cc(Cl)c2ccc3ccccc3c2n1 | inconclusive: 20 µM [inhibitor, partial curve] |  |
| CCCn1c(=O)c(C(=O)NCc2ccccn2)c(O)c2ccccc21 | inconclusive: 12.6 µM [inhibitor, partial curve, poor fit] |  |
| COc1ccc(C(=O)O/N=C(\N)Cc2ccc([N+](=O)[O-])cc2)c(OC)c1 | inconclusive: 17.8 µM [inhibitor, partial curve] |  |
| CC1(C)CC2CC(C)(CN2Cc2c(O)ccc3ccccc23)C1 (configuration not stated) | inconclusive: 17.8 µM [inhibitor, partial curve] |  |
| Cc1cc(C)n(S(=O)(=O)c2ccc(C(C)(C)C)cc2)n1 |  | inactive: -6.12% |
| CN(C)S(=O)(=O)c1ccc(C(=O)Oc2coc(CSc3ncccn3)cc2=O)cc1 | inconclusive: 5.01 µM [inhibitor, full curve] |  |
| Cc1ccc(NC(=O)CSc2nnc3[nH]c(=O)cc(-c4ccccc4)n23)cc1Cl | inconclusive: 6.31 µM [inhibitor, partial curve] |  |
| Cc1cccc(N2CCN(C3=NC(=O)/C(=C\c4cn[nH]c4-c4ccccc4)S3)CC2)c1 | inconclusive: 3.16 µM [inhibitor, full curve, poor fit] |  |
| Cc1ccc2nc(-c3ccc(NS(=O)(=O)c4ccc(F)c(F)c4)cc3)sc2c1 | inconclusive: 8.91 µM [inhibitor, partial curve] |  |
| O=C(NCCC1=CCCCC1)c1ccc2c(=O)n3nc(Nc4ccccc4)sc3nc2c1 | inconclusive: 1.41 µM [inhibitor, partial curve] |  |
| O=C(C[n+]1ccc(C(=O)N/N=C/c2ccc(Br)cc2)cc1)c1ccccc1 | active: 12.6 µM |  |
| CN(C)c1nc(=Nc2cccc(Cl)c2)ss1 | active: 25.1 µM |  |
| Cn1c(=O)n(CCc2ccccc2)c(=O)c2c1nc1n2CCN1Cc1ccco1 | inconclusive: 39.8 µM [inhibitor, single point] |  |
